From patent publication US20210054071A1 (NANJING LEGEND BIOTECH, published 2021) come the findings set out here.

The labels stand for the following.
T1: mouse TIGIT-His protein (Acrobiosystems) (mouse, UniProt P86176 29-148, limits assumed)
T1 construct: bought
T1 sequence (looked up): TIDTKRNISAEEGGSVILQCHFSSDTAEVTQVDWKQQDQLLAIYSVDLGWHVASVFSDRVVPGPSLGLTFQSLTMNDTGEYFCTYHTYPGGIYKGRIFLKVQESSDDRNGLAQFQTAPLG

B1: BTP-17 (bispecific antibody, human IgG1, kappa)
heavy: EVQLVQSGAEVKKPGASVKVSCKASGYIFTGYGITWVRQAPGQGLEWMGEIFPRRVQTYYSEKFKGRVTMTTDTSTSTAYMELRSLRSDDTAVYYCARDYDPYFALDYWGQGTTVTVSS[human IgG1 constant region not written out]
light: EVQLVESGGGLVQPGGSLRLSCAASGYKYGVYSMGWFRQAPGKGLEGVSAICSGGRTTYSDSVKGRFTISRDNSNQILYLQMNSLRAEDTAVYYCAARPLWTGDCDLSSSWYKTWGQGTLVTVSSEPKSSDKTHTSPPSPDIQMTQSPSSLSASVGDRVTITCRASQDVSTAVDWYQQKPGKAPKLLIYSASYRYTGVPDRFSGSGSGTDFTFTISSLQPEDIATYYCQQHYSIPFTFGQGTKLEIKRTVAAPSVFIFPPSDEQLKSGTASVVCLLNNFYPREAKVQWKVDNALQSGNSQESVTEQDSKDSTYSLSSTLTLSKADYEKHKVYACEVTHQGLSSPVTKSFNRGEC
notes: AS19584VH28 - mutated hIgG1 hinge - h53C1 light chain; h53C1 (IgG1) heavy chain; also called BTP-17 (IgG1); PD-L1×TIGIT BABP
B2: BTP-22 (bispecific antibody, human IgG1, kappa)
heavy: EVQLVQSGAEVKKPGASVKVSCKASGYIFTGYGITWVRQAPGQGLEWMGEIFPRRVQTYYSEKFKGRVTMTTDTSTSTAYMELRSLRSDDTAVYYCARDYDPYFALDYWGQGTTVTVSSASTKGPSVFPLAPSSKSTSGGTAALGCLVKDYFPEPVTVSWNSGALTSGVHTFPAVLQSSGLYSLSSVVTVPSSSLGTQTYICNVNHKPSNTKVDKKV[human IgG1 Fc with changes not written out]
light: B1 light
notes: AS19584VH28 - mutated hIgG1 hinge - h53C1 light chain; h53C1 (inert IgG1) heavy chain; also called BTP-22 (inert IgG1); PD-L1×TIGIT BABP
B3: h53C1 (IgG1) mAb (antibody)
heavy: B1 heavy
light: DIQMTQSPSSLSASVGDRVTITCRASQDVSTAVDWYQQKPGKAPKLLIYSASYRYTGVPDRFSGSGSGTDFTFTISSLQPEDIATYYCQQHYSIPFTFGQGTKLEIKRTVAAPSVFIFPPSDEQLKSGTASVVCLLNNFYPREAKVQWKVDNALQSGNSQESVTEQDSKDSTYSLSSTLTLSKADYEKHKVYACEVTHQGLSSPVTKSFNRGEC
notes: also called h53C1 (IgG1) (anti-PD-L1); humanized 53C1
B4: BTP-15 (bispecific antibody, human IgG1, kappa)
heavy: EVQLVESGGGLVQPGGSLRLSCAASGYKYGVYSMGWFRQAPGKGLEGVSAICSGGRTTYSDSVKGRFTISRDNSNQILYLQMNSLRAEDTAVYYCAARPLWTGDCDLSSSWYKTWGQGTLVTVSSEPKSSDKTHTSPPSPEVQLVQSGAEVKKPGASVKVSCKASGYIFTGYGITWVRQAPGQGLEWMGEIFPRRVQTYYSEKFKGRVTMTTDTSTSTAYMELRSLRSDDTAVYYCARDYDPYFALDYWGQGTTVTVSS[human IgG1 constant region not written out]
light: B3 light
notes: AS19584VH28 - mutated hIgG1 hinge - h53C1 (IgG1) heavy chain; also called BTP-15 (IgG1); PD-L1×TIGIT BABP
B5: h53C1 (inert IgG1) mAb (antibody)
heavy: EVQLVQSGAEVKKPGASVKVSCKASGYIFTGYGITWVRQAPGQGLEWMGEIFPRRVQTYYSEKFKGRVTMTTDTSTSTAYMELRSLRSDDTAVYYCARDYDPYFALDYWGQGTTVTVSSASTKGPSVFPLAPSSKSTSGGTAALGCLVKDYFPEPVTVSWNSGALTSGVHTFPAVLQSSGLYSLSSVVTVPSSSLGTQTYICNVNHKPSNTKVDKKV[human IgG1 Fc with changes not written out]
light: B3 light
notes: in-house anti-PD-L1 antibody with effectorless human IgG1 Fc
B6: BTP-21 (bispecific antibody, human IgG1, kappa)
heavy: EVQLVESGGGLVQPGGSLRLSCAASGYKYGVYSMGWFRQAPGKGLEGVSAICSGGRTTYSDSVKGRFTISRDNSNQILYLQMNSLRAEDTAVYYCAARPLWTGDCDLSSSWYKTWGQGTLVTVSSEPKSSDKTHTSPPSPEVQLVQSGAEVKKPGASVKVSCKASGYIFTGYGITWVRQAPGQGLEWMGEIFPRRVQTYYSEKFKGRVTMTTDTSTSTAYMELRSLRSDDTAVYYCARDYDPYFALDYWGQGTTVTVSSASTKGPSVFPLAPSSKSTSGGTAALGCLVKDYFPEPVTVSWNSGALTSGVHTFPAVLQSSGLYSLSSVVTVPSSSLGTQTYICNVNHKPSNTKVDKKV[human IgG1 Fc with changes not written out]
light: B3 light
notes: AS19584VH28 - mutated hIgG1 hinge - h53C1 (inert IgG1) heavy chain; also called BTP-21 (inert IgG1); PD-L1×TIGIT BABP
B7: BTP-4 (bispecific antibody, human IgG1, kappa)
heavy: QVQLAESGGGSVQAGGSLRLSCAASGYKYGVYSMGWFRLAPGKEREGVAAICSGGRTTYSDSVKGRFTISKDSANQILYLQMNSLKPEDTAMYYCAARPLWTGDCDLSSSWYKTWGQGTQVTVSSEPKSSDKTHTSPPSPEVQLVQSGAEVKKPGASVKVSCKASGYIFTGYGITWVRQAPGQGLEWMGEIFPRRVQTYYSEKFKGRVTMTTDTSTSTAYMELRSLRSDDTAVYYCARDYDPYFALDYWGQGTTVTVSSASTKGPSVFPLAPSSKSTSGGTAALGCLVKDYFPEPVTVSWNSGALTSGVHTFPAVLQSSGLYSLSSVVTVPSSSLGTQTYICNVNHKPSNTKVDKKV[human IgG1 Fc with changes not written out]
light: B3 light
notes: AS19584 - mutated hIgG1 hinge - h53C1 (inert IgG1) heavy chain, with the h53C1 light chain; also called BTP-4 (h53C1 inert IgG1); POC PD-L1×TIGIT BABP
B8: BTP-5 (bispecific antibody, human IgG1, kappa)
heavy: QVQLAESGGGSVQAGGSLRLSCAASGYKYGVYSMGWFRLAPGKEREGVAAICSGGRTTYSDSVKGRFTISKDSANQILYLQMNSLKPEDTAMYYCAARPLWTGDCDLSSSWYKTWGQGTQVTVSSEPKSSDKTHTSPPSPEVQLVQSGAEVKKPGASVKVSCKASGYIFTGYGITWVRQAPGQGLEWMGEIFPRRVQTYYSEKFKGRVTMTTDTSTSTAYMELRSLRSDDTAVYYCARDYDPYFALDYWGQGTTVTVSS[human IgG1 constant region not written out]
light: B3 light
notes: AS19584 - mutated hIgG1 hinge - h53C1 (IgG1) heavy chain, with the h53C1 light chain; also called BTP-5 (h53C1 IgG1); POC PD-L1×TIGIT BABP

T3 sequence (Q9NZQ7 19-238 limits assumed): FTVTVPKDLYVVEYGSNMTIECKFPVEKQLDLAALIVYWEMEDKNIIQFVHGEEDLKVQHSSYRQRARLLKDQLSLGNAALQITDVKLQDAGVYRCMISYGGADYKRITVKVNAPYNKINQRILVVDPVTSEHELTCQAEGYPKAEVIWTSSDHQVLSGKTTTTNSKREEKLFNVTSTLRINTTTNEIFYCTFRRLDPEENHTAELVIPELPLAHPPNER

In the first test the target is T2, PD-L1 expressed on cells (UniProt Q9NZQ7).
T2 construct: whole, on cells; also called CHO-PD-L1 cells; PD-L1 Target cells (GS-C2/PD-L1)
Kind of test: FACS, CHO-PD-L1 cells. (Flow cytometry measures light scatter and fluorescence of single cells or particles in a stream.)
One may read the EC50 as the concentration needed to bring the measured effect to its halfway point. Take B1: the EC50 came out at 3.56 nM.

Molecule B2 yielded an EC50 of 4.86 nM.

On to B3, for which the concentration giving a half-maximal response (EC50) worked out at 1.25 nM.

The molecule B4 yielded an EC50 of 3.53 nM. Against the preceding molecule, the EC50 is about 2.8-fold higher.

Take B5: it took 2.01 nM to reach a half-maximal effect (EC50).

B6 displayed a concentration giving a half-maximal response (EC50) of 3.36 nM.

The next test deals with T2, PD-L1 expressed on cells. The test is described as follows: cell-based or functional assay.
T2 sequence (Q9NZQ7 19-290 limits assumed): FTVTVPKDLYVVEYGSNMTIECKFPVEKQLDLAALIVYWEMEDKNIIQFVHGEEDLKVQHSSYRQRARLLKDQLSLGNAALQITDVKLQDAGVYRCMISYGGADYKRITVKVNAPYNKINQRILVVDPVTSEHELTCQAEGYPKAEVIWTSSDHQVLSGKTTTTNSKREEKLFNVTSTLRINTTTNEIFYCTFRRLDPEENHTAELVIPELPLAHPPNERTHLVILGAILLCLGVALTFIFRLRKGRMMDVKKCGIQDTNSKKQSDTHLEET
On to B5, for which the “PD-L1/TIGIT bifunctional reporter assay: EC50” value worked out at 2.76 nM.

In a further test the target is T3, human PD-L1 (Acrobiosystems) (human, UniProt Q9NZQ7 fragment).
T3 construct: bought
Kind of test: SPR as in Example 2.
Broadly, the Kd is a measure of binding affinity in units of concentration. In the case of B1, the equilibrium dissociation constant (Kd) was 0.65 nM.

In the case of B2, the equilibrium dissociation constant (Kd) is 0.79 nM.

B3 had an equilibrium dissociation constant (Kd) of 0.35 nM. This Kd is about 2.3-fold lower than that of the molecule before.

As to B4, the affinity, expressed as Kd, was 0.54 nM.

Molecule B5 showed a dissociation constant Kd of 0.44 nM. The Kd values of the last two molecules are within 1.5-fold of each other.

Turning to B6, the dissociation constant (Kd) worked out at 0.5 nM. The Kd values of the last two molecules are within 1.5-fold of each other.

A further test concerns the target T1, mouse TIGIT-His protein (Acrobiosystems). The test is described as follows: SPR as in Example 2.
As to B1, binding was put at a Kd of 0.81 nM.

B2: the equilibrium dissociation constant (Kd) worked out at 0.77 nM.

As for B4, the equilibrium dissociation constant (Kd) was 0.75 nM. This Kd and that of the molecule before are within 1.5-fold of each other.

Molecule B6 registered a dissociation constant Kd of 0.79 nM.

In a further test the target is T2, PD-L1 expressed on cells. The test is described as follows: FACS competition, PD-1 binding to CHO-PD-L1 cells.
Molecule B7 yielded a half-maximal effective concentration (EC50) of 0.469 nM.

In turn, B3 had an EC50 of 0.432 nM. The EC50 values of the last two molecules are within 1.5-fold of each other.

The molecule B5 yielded an EC50 of 0.339 nM.

For the molecule B8, the half-maximal effective concentration (EC50) is 0.468 nM.

A further test addresses T2, PD-L1 expressed on cells. The test is described as follows: FACS competition, PD-1 binding to CHO-PD-L1 cells. This is another data set of the same source.
B1: the EC50 is 2.35 nM.

The molecule B2 displayed a 50% effective concentration (EC50) of 5.91 nM.

Turning to B3, the EC50 came to 0.636 nM.

With B4, the EC50 was determined as 1.83 nM. Compared with the last molecule, the EC50 is about 2.9-fold higher.

B5 gave a concentration giving a half-maximal response (EC50) of 1.97 nM.

B6: the EC50 was 3.66 nM.

In a further test the target is T2, PD-L1 expressed on cells. The test is described as follows: FACS, CHO-PD-L1 cells. The source holds these as a separate data set.
On to B7, for which the concentration giving a half-maximal response (EC50) was found to be 0.627 nM.

As for B3, the concentration for a half-maximal effect (EC50) was found to be 0.466 nM.

Regarding B5, the half-maximal effective concentration (EC50) is 0.451 nM.

As for B8, a half-maximal response (EC50) required 0.636 nM.

The target of the next test is T2, PD-L1 expressed on cells. Kind of test: cell-based or functional assay. The source holds these as a separate data set.
As for B1, the “PD-L1 cell based assay EC50” value worked out at 3.84 nM.

For the molecule B2, the “PD-L1 cell based assay EC50” value is 5.83 nM.

On to B3, for which the “PD-L1 cell based assay EC50” value is 4.02 nM.

As for B4, the “PD-L1 cell based assay EC50” value is 8.11 nM.

For the molecule B5, the “PD-L1 cell based assay EC50” value came out at 6.88 nM.

In the case of B6, the “PD-L1 cell based assay EC50” value stood at 5.04 nM.

Another test concerns the target T3, human PD-L1 (Acrobiosystems). The test is described as follows: SPR as in Example 2. The source holds these as a separate data set.
The molecule B7 returned a Kd of 0.51 nM.

Turning to B3, binding was put at a Kd of 0.5 nM. This Kd and that of the molecule before are within 1.5-fold of each other.

In turn, B5 showed a Kd of 0.41 nM.

For B8, binding was characterised by a dissociation constant (Kd) of 0.49 nM. This Kd and that of the molecule before are within 1.5-fold of each other.

Another test has as its target T1, mouse TIGIT-His protein (Acrobiosystems). Kind of test: SPR as in Example 2. The source holds these as a separate data set.
On to B7, for which the Kd turned out to be 0.56 nM.

B8: the Kd came out at 0.59 nM.

For another test, the target named is T2, PD-L1 expressed on cells. The test is described as follows: cell-based or functional assay. This is another data set of the same source.
With B7, the “PD-L1 cell-based assay EC50” value is 1.79 nM.

As to B3, the “PD-L1 cell-based assay EC50” value was found to be 1.87 nM.

Take B5: the “PD-L1 cell-based assay EC50” value turned out to be 1.81 nM.

B8: the “PD-L1 cell-based assay EC50” value turned out to be 1.97 nM.
